In US9447134B2 (priority 2012, dated 2016):

What was measured:
[1] = system: T. gondii/CpIMPDH; conditions: for activity against T. gondii/CpIMPDH (in words): hTERT human foreskin fibroblast host cells
[2] = target: Ca. jejuni IMPDH (Campylobacter jejuni, UniProt Q0P9J4); experiment: biochemical
From the text: FIG. 24 depicts for selected D, P, and Q Series compounds (i) data on inhibition of representative bacterial IMPDHs and (ii) antibacterial activity.

Chain of Ca. jejuni IMPDH (Q0P9J4 entry or part of it): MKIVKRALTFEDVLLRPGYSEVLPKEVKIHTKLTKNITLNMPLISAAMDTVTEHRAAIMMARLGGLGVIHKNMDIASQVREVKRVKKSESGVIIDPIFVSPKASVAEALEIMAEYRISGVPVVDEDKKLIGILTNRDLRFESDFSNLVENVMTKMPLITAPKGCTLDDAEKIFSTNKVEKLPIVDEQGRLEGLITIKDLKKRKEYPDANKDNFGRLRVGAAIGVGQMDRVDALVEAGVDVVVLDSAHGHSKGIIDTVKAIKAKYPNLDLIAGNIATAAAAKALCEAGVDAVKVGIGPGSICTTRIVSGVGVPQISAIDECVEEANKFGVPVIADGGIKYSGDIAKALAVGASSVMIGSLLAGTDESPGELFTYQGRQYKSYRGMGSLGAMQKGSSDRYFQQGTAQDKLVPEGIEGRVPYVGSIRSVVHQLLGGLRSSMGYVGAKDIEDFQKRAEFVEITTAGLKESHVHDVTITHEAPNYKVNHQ

Compound | activity against T. gondii/CpIMPDH (in words) [1] | IC50 [2] [nM] | selectivity versus the wild-type strain [1]
Cn1nc(CC(=O)Nc2ccc(Br)c(C(F)(F)F)c2)c2ccccc2c1=O [Compound D45] | sub-micromolar activity | 250 | –
Cn1nc(CC(=O)Nc2ccc(Cl)c(C(F)(F)F)c2)c2ccccc2c1=O [Compound D48] | sub-micromolar activity | – | ≥ 30
Cn1nc(CC(=O)Nc2ccc(Cl)c(F)c2)c2ccccc2c1=O [Compound D52] | – | 1100 | –
Cn1nc(CC(=O)Nc2ccc3oc4ccccc4c3c2)c2ccccc2c1=O [Compound D73, N-(dibenzo[b,d]furan-2-yl)-2-(3-methyl-4-oxo-3,4-dihydrophthalazin-1-yl)acetamide] | sub-micromolar activity | – | –
Cn1nc(CC(=O)Nc2ccc(Cl)c(C(F)(F)F)c2)c2ccccc2c1=O [drawing 311] | sub-micromolar activity | – | > 30
N-(6,7,8,9-tetrahydrodibenzo[b,d]furan-5-yl)-2-(3-methyl-4-oxo-3,4-dihydro-phthalazin-1-yl)acetamide [Compound D67] | sub-micromolar activity | – | –
